{"source": "paper PMC10726135", "note": "Some of the results follow. At the low end of the ranking the order means little. Measured with an extract: partners may take part in the binding."}
{"biological_target": "T1, HNF4alpha2 (COS-7 nuclear extract) (UniProt P41235)", "T1 sequence": "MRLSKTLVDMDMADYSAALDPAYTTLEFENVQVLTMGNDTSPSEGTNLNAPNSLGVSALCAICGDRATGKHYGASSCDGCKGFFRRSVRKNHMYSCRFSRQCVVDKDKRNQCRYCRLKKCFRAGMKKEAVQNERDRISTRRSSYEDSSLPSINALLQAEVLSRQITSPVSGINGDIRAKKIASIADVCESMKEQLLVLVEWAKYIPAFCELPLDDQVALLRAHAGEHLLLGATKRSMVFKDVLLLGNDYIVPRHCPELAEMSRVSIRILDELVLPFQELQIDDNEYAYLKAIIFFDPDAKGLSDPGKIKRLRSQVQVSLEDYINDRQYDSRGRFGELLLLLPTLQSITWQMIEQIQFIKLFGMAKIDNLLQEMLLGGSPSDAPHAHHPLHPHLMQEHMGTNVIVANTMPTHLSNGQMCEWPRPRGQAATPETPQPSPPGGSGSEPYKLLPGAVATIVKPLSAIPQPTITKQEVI", "assay": "protein-binding microarray", "conditions": "COS-7 nuclear extract on double-stranded Agilent 4x180k PBM; binding buffer, salt, pH and temperature not given; high values mean tight binding; double strand, one strand shown; sequences stand for … in …GCCTAGGGAGATTAGAGTATCGGTCGA"}
{"sequence": "TGTGTAGGAGTACACTCAGCACACCCCACG", "binding signal (log2 normalized intensity)": 2.16}
{"sequence": "TCCAGGAATGTGCTAAAAAACAAACAAAAA", "binding signal (log2 normalized intensity)": -0.651}
{"sequence": "CGCCCAGCCAGAAAAACAGCATTTTTATCA", "binding signal (log2 normalized intensity)": -1.11}
{"sequence": "AATGAACACCTGTTCTAATCAGTAGCTCAC", "binding signal (log2 normalized intensity)": -1.08}
{"sequence": "CTCTGCACAGCACAAGATAAGATAGGAATT", "binding signal (log2 normalized intensity)": -0.966}
{"sequence": "CGCCCCGCCTTCGCGCCCGTTTTCGTTTGC", "binding signal (log2 normalized intensity)": 2.07}
{"sequence": "GCCATACGTCTAGAGCTGTCCAGCAGACAA", "binding signal (log2 normalized intensity)": -1.14}
{"sequence": "GTGACCTTGAGCACTAAAGAGGCTACCAGA", "binding signal (log2 normalized intensity)": -1.12}
{"sequence": "AGACTGGTTTGCACAGGTTACACAGTATGT", "binding signal (log2 normalized intensity)": 0.747}
{"sequence": "ACATTCCTAAAAGCTTTCTTGGGCAAGAAA", "binding signal (log2 normalized intensity)": -1.12}
{"sequence": "GAAAGGAAATCATTCCAGAAAGACAGCTGC", "binding signal (log2 normalized intensity)": -1.02}
{"sequence": "TATGTGGTGGAATGGAAAGAATATGAACTT", "binding signal (log2 normalized intensity)": 1.66}
{"sequence": "AGGCCAGCTGTCTGGTTTGACCTTAAGTCA", "binding signal (log2 normalized intensity)": 4.87}
{"sequence": "AAGTAACAAGAGGCAAAGGCCACAGCTCAG", "binding signal (log2 normalized intensity)": -1.21}
{"sequence": "TTTACAGCACTTCATCCTTATGTAACTGTA", "binding signal (log2 normalized intensity)": 0.644}
{"sequence": "GAGAAAGCAGTGACCATCCCAAAGCTTTTT", "binding signal (log2 normalized intensity)": -1.17}
{"sequence": "AAATGCTGATAATGATATGGACAATGAAAT", "binding signal (log2 normalized intensity)": 0.827}
{"sequence": "CCCCCACACAGACAAAGACAGAGAGGCTTC", "binding signal (log2 normalized intensity)": 1.84}
{"sequence": "GGGCAGCACAGCCTCCCTGTGGGGGAGGTG", "binding signal (log2 normalized intensity)": -1.21}
{"sequence": "CTGCCCTTCCCTCCACTATTGTCCTATGAC", "binding signal (log2 normalized intensity)": 2.33}
{"sequence": "CCCCTGGGCTCAAGCGATCCTCCCACTTCA", "binding signal (log2 normalized intensity)": -0.639}
{"sequence": "GTCCAGGAGTGCAAAGCTGCTATGAGCTAT", "binding signal (log2 normalized intensity)": -1.08}
{"sequence": "CTTCCAGCCATTTTGTGAGCTCTGATGGCG", "binding signal (log2 normalized intensity)": -0.92}
{"sequence": "AAAACAGGTAGAGAGCTGTCTGCTGAGGAT", "binding signal (log2 normalized intensity)": -1.04}
{"sequence": "GCCAGAGTTCCTGTGCAAGCCCCTGACCAA", "binding signal (log2 normalized intensity)": 0.583}
{"sequence": "GCATAGATGTTTAGCTATCAGTGTTGACCT", "binding signal (log2 normalized intensity)": 4.26}
{"sequence": "TTCAGAAGGTAGGTAAGGGGGAATGCCAAC", "binding signal (log2 normalized intensity)": -1.18}
{"sequence": "TGCGACAGGGAGATTTCCTGGGAGAGAAAA", "binding signal (log2 normalized intensity)": -1.18}
{"sequence": "TGGTAACCGGAGCAAAGGTTACTCTTGTTA", "binding signal (log2 normalized intensity)": 2.85}
{"sequence": "ATCTAGTTTCCTAGCTCACTGATAAGAAAG", "binding signal (log2 normalized intensity)": -1.07}
{"sequence": "TACTTTAGCTGCCAGAGGTTCTTTCACAGG", "binding signal (log2 normalized intensity)": -0.0416}
{"sequence": "CAACATTGCGCAATGCACACACTTACACAT", "binding signal (log2 normalized intensity)": -1.21}
{"sequence": "TTTCTGCTCTCAACTAGAGATAAACTTTTG", "binding signal (log2 normalized intensity)": 0.835}
{"sequence": "AGTGCATGAATCAACTGTTGTGGACCACGT", "binding signal (log2 normalized intensity)": 1.74}
{"sequence": "AAATGAGAATGAGACCTGCTAGGCTGCATT", "binding signal (log2 normalized intensity)": -1.33}
{"sequence": "AGTTGGGAAAAGTAACACAGTAAGAGACTT", "binding signal (log2 normalized intensity)": -0.782}
{"sequence": "TTCATCTCACAGAGTGGAGTCTTCCGTTTG", "binding signal (log2 normalized intensity)": 0.641}
{"sequence": "TGGCTGGCTTTAGAGTTGTAGCTCTCAGCT", "binding signal (log2 normalized intensity)": -1.12}
{"sequence": "GACCTGGGAATTCAAGGAATGCAGCTCAGA", "binding signal (log2 normalized intensity)": -1.21}
{"sequence": "AGTCAGTGAAGGAGCTGACTAGATTTCTGT", "binding signal (log2 normalized intensity)": -0.399}
{"sequence": "ATTTCTGTTGTTGATTTAACATTTGTGATC", "binding signal (log2 normalized intensity)": 1.92}
{"sequence": "TGAGATAATGCTGGTAAAGCACTTTGCCCC", "binding signal (log2 normalized intensity)": 4.81}
{"sequence": "CTAGGTAAGCACAGGTTTCTGTCCTGGTCA", "binding signal (log2 normalized intensity)": 1.3}
{"sequence": "TTGGTCTTATTATCTTCAATGATAAGGAAT", "binding signal (log2 normalized intensity)": 0.897}
{"sequence": "TTCAAGTAGAGCTTCACCTCTAAATCTATT", "binding signal (log2 normalized intensity)": -0.707}
{"sequence": "AACTCTGGAGTTTGCCCTTCACAAATTAGA", "binding signal (log2 normalized intensity)": 2.58}
{"sequence": "AAAAATCCTGCCAAACCAGTTCAACAAGAA", "binding signal (log2 normalized intensity)": -1.14}
{"sequence": "GCTGCCCTGCACCTGGAGCCCTTAGGGTCA", "binding signal (log2 normalized intensity)": 2.22}
{"sequence": "AGCAGTGACCATCCCAAAGCTTTTTGATTG", "binding signal (log2 normalized intensity)": -1}
{"sequence": "TGTCAAGATTGAGACATTCATGGCTTTTGT", "binding signal (log2 normalized intensity)": 0.156}
{"sequence": "TGCTGAGGAGGGCCTGGGGGACAGCAGGGG", "binding signal (log2 normalized intensity)": -1.11}
{"sequence": "TTTTGCCCCTGCAGAGTTTTTTACTGCTCC", "binding signal (log2 normalized intensity)": 0.255}
{"sequence": "GCCTGGGGTTTGGCTCCAAGGCTGAAGGTC", "binding signal (log2 normalized intensity)": 3.17}
{"sequence": "GGAGCTCATACCTCTTACCAGATAGATGCT", "binding signal (log2 normalized intensity)": -1.09}
{"sequence": "AGCTGCAAGTGCCAACAAACTCAATCCTGG", "binding signal (log2 normalized intensity)": -1.11}
{"sequence": "GCGCCCTTTGTTCTCCGGGTTCTGCGCAGG", "binding signal (log2 normalized intensity)": -0.133}
{"sequence": "CAAAGGTGCAAAGGTTAAAATGCCCTCACA", "binding signal (log2 normalized intensity)": 5}
{"sequence": "CAAAGGTGAATGACCCCTCCCCTCCCCCTT", "binding signal (log2 normalized intensity)": 5.89}
{"sequence": "ATAATCTTTGAAATCTGCAAATAGACATGA", "binding signal (log2 normalized intensity)": 1.35}
{"sequence": "TGTACAAAGCCATCAGCACTGGTTCAAAGT", "binding signal (log2 normalized intensity)": 1.34}
{"sequence": "GCTGGGCAGAGGGACAACTGAGTTACGTAA", "binding signal (log2 normalized intensity)": -0.853}
{"sequence": "ATGTCATGCAGCTAAAAGCAGCATCCCTGA", "binding signal (log2 normalized intensity)": -1.13}
{"sequence": "TCTCCTCCACAGAGCACAGGATCCAGAGGT", "binding signal (log2 normalized intensity)": -0.742}
{"sequence": "GATCTGGCCAGGCCTGGTTCGGGATTATGG", "binding signal (log2 normalized intensity)": 1.01}
{"sequence": "TTACAGGCAATTGATAATGATGTTTACATT", "binding signal (log2 normalized intensity)": 0.64}
{"sequence": "TTGACATAAACAGAAGCAATCACAAGGAAT", "binding signal (log2 normalized intensity)": -1.11}
{"sequence": "CCTGAAAGAGAGGAGGCTGAAGACTTTGCA", "binding signal (log2 normalized intensity)": -1.22}
{"sequence": "GTTTTTAAAGGCTTTTAAAGGCTAGTGAAA", "binding signal (log2 normalized intensity)": -0.199}
{"sequence": "TGCCTTAAGTTGAAGTGAGTTGTTTGTTTT", "binding signal (log2 normalized intensity)": 2.2}
{"sequence": "GACCTCATGTAGTCACATACCTATGCAAAC", "binding signal (log2 normalized intensity)": 0.671}
{"sequence": "TGAATGGCTGATTGGCAGGCATTCCACACT", "binding signal (log2 normalized intensity)": -1.24}
{"sequence": "CCATATTGACTAAACATTCTTGAATTTCGT", "binding signal (log2 normalized intensity)": 1.57}
{"sequence": "AAGCCACAGTACAAAGGTGAGCTTTTATCT", "binding signal (log2 normalized intensity)": 3.04}
